A word on the Kd: it is a measure of binding affinity in units of concentration. Read a low Kd as tighter binding.

For two molecules, Kd results are on record in patent publication US12286458 (NAVIGO PROTEINS, dated 2025).

Numbering of substitutions follows the chain as printed.

The assay deals with acid alpha glucosidase (GAA) (UniProt P10253). Put plainly: SPR, BIAcore 3000, biotinylated GAA immobilized on chip, binder as analyte, Langmuir 1:1. From the text:
500-1500 RU GAA (ON-ligand) was immobilized on a CM-5 sensor chip (GE Healthcare); the chip was equilibrated with SPR running buffer. GAA was biotinylated with Sulfo-NHS-Biotin standard reagent and purified via size exclusion chromatography (Superdex 200). The target protein was immobilized by injection of a biotinylated target on Streptavidin coated sensor chip. Upon ligand binding, protein analyte was accumulated on the surface increasing the refractive index. This change in the refractive index was measured in real time and plotted as response or resonance units versus time. The analytes were applied to the chip in serial dilutions with a flow rate of 30 μl/min. The association was performed for 120 seconds and the dissociation for 360 seconds. After each run, the chip surface was regenerated with 30 μl regeneration buffer (10 mM Glycine) and equilibrated with running buffer. Binding studies were carried out by the use of the BIAcore 3000 (GE Healthcare); data evaluation was operated via the BIAevaluation 3.0 software, provided by the manufacturer, by the use of the Langmuir 1:1 model (RI=0). Evaluated dissociation constants (K_D) were standardized against GAA and indicated. Shown is the change in refractive index measured in real time and plotted as response or resonance unit [RU] versus time [sec].

B1: GAA binding protein SEQ ID NO: 1 (192403) (designed binder)
chain: IAAKFDMKQAWADHFILELPNLTEEQRNAFRQSLSDDPSVSDLVLLQAQKLNQMQAPK
The molecule B1 displayed a Kd of 26.5 nM.

B2: GAA binding protein SEQ ID NO: 2 (192402) (designed binder)
chain: B1 chain with L46A, M54S
Molecule B2 returned a Kd of 23 nM.
